The record followed here is US20220125947A1.

B1: VG9B424 (antibody, human IgG1, kappa)
heavy: EVQLVESGGGLVKPGGSLRLSCSASGFTFSNYDMNWVRQAPGKGLEWVSSISSSSSYIYYADSVKGRFTISRDNAKNSLYLQMNSLRAEDTAVYHCARDVGVTTDYYYYGMDVWGQGTMVTVSS[human IgG1 constant region omitted here]
light: ETTLTQSPGTLSLSPGDRATLSCRASQSVASSYLAWYQQKPGQSPRLLIYGASSRATGIPDRFSGSGSGTDFTLTISRLEPEDFAVYYCQQYGSSPPYTFGQGTKLEIKRTVAAPSVFIFPPSDEQLKSGTASVVCLLNNFYPREAKVQWKVDNALQSGNSQESVTEQDSKDSTYSLSSTLTLSKADYEKHKVYACEVTHQGLSSPVTKSFNRGEC
B2: VG9B425 (antibody, human IgG1, kappa)
heavy: EVQLLESGGGLVKPGGSLRLSCSASGFTFSNYDMNWVRQAPGKGLEWVSSISSSSSYIYYADSVKGRFTISRDNAKNSLYLQMNSLRAEDTAVYHCARDVGVTTDYYYYGMDVWGQGTMVTVSS[human IgG1 constant region omitted here]
light: ETTLTQSPGTLSLSPGDRATLSCRASQSVASSYLAWYQQKPGQSPRLLIYGASSRATGIPDRFSGSGSGTDFTLTISRLEPEDFAVYYCQQYGSSPPYTFGQGTKVEIKRTVAAPSVFIFPPSDEQLKSGTASVVCLLNNFYPREAKVQWKVDNALQSGNSQESVTEQDSKDSTYSLSSTLTLSKADYEKHKVYACEVTHQGLSSPVTKSFNRGEC
B3: VG9B427 (antibody, human IgG1, kappa)
heavy: QVQLVESGGGLVKPGGSLRLSCSASGFTFSNYDMNWVRQAPGKGLEWVSSISSSSSYIYYADSVKGRFTISRDNAKNSLYLQMNSLRAEDTAVYHCARDVGVTTDYYYYGMDVWGQGTTVTVSS[human IgG1 constant region omitted here]
light: EIVMTQSPGTLSLSPGDRATLSCRASQSVASSYLAWYQQKPGQSPRLLIYGASSRATGIPDRFSGSGSGTDFTLTISRLEPEDFAVYYCQQYGSSPPYTFGQGTRLEIKRTVAAPSVFIFPPSDEQLKSGTASVVCLLNNFYPREAKVQWKVDNALQSGNSQESVTEQDSKDSTYSLSSTLTLSKADYEKHKVYACEVTHQGLSSPVTKSFNRGEC
B4: VG9B156 (antibody, human IgG1, lambda)
heavy: QVQLQESGPGLMKPSETLSLTCTVSNGSISGYFWNWIRQPPGKGLEWIGYIFYSGSTNYNPSLKSRVTISVDTSKNLVSLKLNSVTAADTAVYFCAKLGKWELRTAFDIWGQGTMVTVSS[human IgG1 constant region omitted here]
light: QLVLTQPPSASGTPGQRVTISCSGSTSNIGSDTVNWYQQLPGTAPKLLIYSNNQRPSGVPDRFSGSKSGTSASLAISGLQSEDETDYYCAAWDDSLNGPVFGGGTKVTVLGQPKAAPSVTLFPPSSEELQANKATLVCLISDFYPGAVTVAWKADSSPVKAGVETTTPSKQSNNKYAASSYLSLTPEQWKSHRSYSCQVTHEGSTVEKTVAPTECS
B5: VG9B186 (antibody, human IgG1, lambda)
heavy: QVTLRESGPVLVKPTETLTLTCTVSGFSLTNIRMSVSWIRQPPGEALEWLAHIFSNDEKSYNSSLKSRLTISRDTSKSQVVLTLTNVDPVDTATYYCARMRLPYGMDVWGQGTMVTVSS[human IgG1 constant region omitted here]
light: QSVLTQPPSASGTPGQRVTISCSGSTSNIGSNTVNWYQQLPGTAPKLLIYSNNQRPSGVPDRFSGSKSGTSASLAISGLQSEDEADFYCAAWDDSLNGPVFGGGTKVTVLGQPKAAPSVTLFPPSSEELQANKATLVCLISDFYPGAVTVAWKADSSPVKAGVETTTPSKQSNNKYAASSYLSLTPEQWKSHRSYSCQVTHEGSTVEKTVAPTECS
B6: VG9B111 (antibody, human IgG1, kappa)
heavy: QVQLLESGGGLVKPGGSLRLSCAASGFTFSTYSVNWVRQAPGKGLEWVSSISSDSSYIFYADSMKGRFTISRDNAKNSLYLHMNSLRAEDTAVYYCARDSVTGPFDYWGQGTLVTVSS[human IgG1 constant region omitted here]
light: DIVMTQSPSSLSASVGDRVTITCQASQDISHYLNWYQQKPGKAPKLLIYDSYILETGVTSRFSGSGSGTDFTFTINSLQPEDIAIYYCQQYDNLPYTFGQGTKVEIKRTVAAPSVFIFPPSDEQLKSGTASVVCLLNNFYPREAKVQWKVDNALQSGNSQESVTEQDSKDSTYSLSSTLTLSKADYEKHKVYACEVTHQGLSSPVTKSFNRGEC
B7: VG9B639 (antibody, human IgG1, kappa)
heavy: QVQLVQSGGGLVKPGGSLRLSCAASGFTFTTYRMNWVRQAPGKGLEWVSSISSSSIYIHSADSVKGRFTISRDNAKNSLYLQMNSLRAEDSAIYYCARERVYTVSFDYWGQGTLVTVSS[human IgG1 constant region omitted here]
light: DIQMTQSPSSLSASVGDRVTITCQASQDISHYLNWYQQKPGKAPKLLIYDSYILETGVTSRFSGSGSGTDFTFTINSLQPEDIAIYYCQQYDNLPYTFGQGTKVEIKRTVAAPSVFIFPPSDEQLKSGTASVVCLLNNFYPREAKVQWKVDNALQSGNSQESVTEQDSKDSTYSLSSTLTLSKADYEKHKVYACEVTHQGLSSPVTKSFNRGEC
B8: VG9B161 (antibody, human IgG1, lambda)
heavy: QVQLQESGPGLVKPSETLSLTCTVSGGSISSYFWSWIRQPPGKGLEWIGYIFYSGSTNYNPSLKSRVTILVDTSKNHFSLKLSSVTAADTAVYYCARVGRWELRGAFDIWGQGTMVTVSS[human IgG1 constant region omitted here]
light: QPVLTQSSSASGTPGQRVTISCSGSSSNIGSNTVNWYQQFPGTAPKLLIYSNNQRPSGVPDRFSGSKSGTSASLAISGLQSEDEAEYYCAAWDDSLNSPGVFGGGTKLTVLGQPKAAPSVTLFPPSSEELQANKATLVCLISDFYPGAVTVAWKADSSPVKAGVETTTPSKQSNNKYAASSYLSLTPEQWKSHRSYSCQVTHEGSTVEKTVAPTECS
B9: VG9B182 (antibody, human IgG1, lambda)
heavy: QVQLVESGPGLVKPSETLSLTCTVSGDSINNHFWSWIRQPPGKGLEWIGFVFYNGNTNYNPSLKSRVTISIDTSKSQFSLKLTSVTAADTAVYYCARVGRWVLRTAFDIWGQGTMVTVSS[human IgG1 constant region omitted here]
light: QSALTQPPSASGTPGQRVTISCSGSSSNIGSNTVNWYQQLPGTAPKLLIYSNNQRPSGVPARFSGSKSGTSASLAISGLQSEDEADYYCAAWDDSLNGPGVFGGGTKLTVLGQPKAAPSVTLFPPSSEELQANKATLVCLISDFYPGAVTVAWKADSSPVKAGVETTTPSKQSNNKYAASSYLSLTPEQWKSHRSYSCQVTHEGSTVEKTVAPTECS
B10: VG9B173 (antibody, human IgG1, lambda)
heavy: QVQLQESGPGLVKPSETLSLTCTVSGGSINNYFWSWIRQPPGKGLEWIGYIYYSGSTNYNPSLKSRVTISVVTSMNQFSLKLSSVTAADTAVYYCAREGKWELRSAFDIWGQGTMVTVSS[human IgG1 constant region omitted here]
light: QSVLTQPPSASGTPGQRVTISCSGSSSNIESNTVNWYQQLPRTAPKLLIYSNNQRPSGVPDRFSGSKSGTSASLAISGLQSEDEADYYCTAWDDSLNGPVFGGGTKVTVLGQPKAAPSVTLFPPSSEELQANKATLVCLISDFYPGAVTVAWKADSSPVKAGVETTTPSKQSNNKYAASSYLSLTPEQWKSHRSYSCQVTHEGSTVEKTVAPTECS

The target in the first test is T cell receptor (TCR) Vγ9 (TRGV9) on Vγ9+ T cells in PBMCs (human), Q99603. Put plainly: cell-based or functional assay.
Chain of T cell receptor (TCR) Vγ9 (TRGV9) on Vγ9+ T cells in PBMCs (human), Q99603 (Q99603 21-122): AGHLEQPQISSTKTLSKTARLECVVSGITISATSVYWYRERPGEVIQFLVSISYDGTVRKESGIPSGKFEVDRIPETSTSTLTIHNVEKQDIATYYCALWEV
The molecule B1 returned a CD25+ (Vg9+ cells), flow staining of 36.7%; a CD71+ (Vg9+ cells), flow staining of 98.8%; a Granzyme B (Luminex, supernatant) of 3960; an IFNγ (Luminex, supernatant) of 1400. This molecule returned an IL6 (Luminex, supernatant) of 931; a TNFα (Luminex, supernatant) of 174; a Vg9 T cell %, flow staining of 12.1%.
Take B2: the CD25+ (Vg9+ cells), flow staining came to 39.3%; the CD71+ (Vg9+ cells), flow staining came to 98.6%; the Granzyme B (Luminex, supernatant) was 3740; the IFNγ (Luminex, supernatant) is 1360. This molecule also had an IL6 (Luminex, supernatant) of 612; a TNFα (Luminex, supernatant) of 127; a Vg9 T cell %, flow staining of 15.6%.
B3 came in with a CD25+ (Vg9+ cells), flow staining of 50.6%; a CD71+ (Vg9+ cells), flow staining of 99.1%; a Granzyme B (Luminex, supernatant) of 4680; an IFNγ (Luminex, supernatant) of 2490. Further, the IL6 (Luminex, supernatant) stood at 340; the TNFα (Luminex, supernatant) was found to be 220; the Vg9 T cell %, flow staining stood at 13.6%.

For a further test, the target named is TCR Vδ2 (TRDV2) (human), A0JD36. Nature of the test: cell-based or functional assay.
Chain of TCR Vδ2 (TRDV2) (human), A0JD36 (A0JD36 20-115, stated change not applied): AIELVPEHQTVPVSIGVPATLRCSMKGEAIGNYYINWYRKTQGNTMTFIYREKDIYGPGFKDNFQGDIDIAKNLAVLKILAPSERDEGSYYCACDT
In turn, B4 returned a CD25+ (Vg9+ cells), flow staining of 27.5%; a CD71+ (Vg9+ cells), flow staining of 93.7%; a Granzyme B (Luminex, supernatant) of 493; an IFNγ (Luminex, supernatant) of 44. Further, the IL6 (Luminex, supernatant) was 37; the TNFα (Luminex, supernatant) was 14; the Vg9 T cell %, flow staining was 6.4%.
As for B5, the CD25+ (Vg9+ cells), flow staining came to 13.3%; the CD71+ (Vg9+ cells), flow staining was found to be 78.3%; the Granzyme B, Luninex (supernatant) stood at 327; the IFNγ, Luninex (supernatant) is 68. This molecule returned an IL6, Luninex (supernatant) of 56; a TNFα, Luninex (supernatant) of 429; a Vg9 T cell %, flow staining of 3.4%.
B6 displayed a CD25+ (Vg9+ cells), flow staining of 27.8%; a CD71+ (Vg9+ cells), flow staining of 84.4%; a Granzyme B (Luminex, supernatant) of 98; an IFNγ (Luminex, supernatant) of 44. The IL6 (Luminex, supernatant) turned out to be 32; the TNFα (Luminex, supernatant) came to 42; the Vg9 T cell %, flow staining was found to be 8.8%.
For B7, the CD25+ (Vg9+ cells), flow staining turned out to be 37.8%; the CD71+ (Vg9+ cells), flow staining came out at 94.7%; the Granzyme B (Luminex, supernatant) amounted to 4290; the IFNγ (Luminex, supernatant) amounted to 1400. The IL6 (Luminex, supernatant) is 755; the TNFα (Luminex, supernatant) came out at 6080; the Vg9 T cell %, flow staining was 4.3%.
B8: the CD25+ (Vg9+ cells), flow staining turned out to be 31.3%; the CD71+ (Vg9+ cells), flow staining was 94.5%; the Granzyme B (Luminex, supernatant) turned out to be 1670; the IFNγ (Luminex, supernatant) worked out at 620. The IL6 (Luminex, supernatant) was found to be 286; the TNFα (Luminex, supernatant) came to 1280; the Vg9 T cell %, flow staining came to 5.4%.
The molecule B9 displayed a CD25+ (Vg9+ cells), flow staining of 37.9%; a CD71+ (Vg9+ cells), flow staining of 91%; a Granzyme B, Luninex (supernatant) of 2180; an IFNγ, Luninex (supernatant) of 938. This molecule also had an IL6, Luninex (supernatant) of 209; a TNFα, Luninex (supernatant) of 1040; a Vg9 T cell %, flow staining of 2.5%.
B10: the CD25+ (Vg9+ cells), flow staining is 22.9%; the CD71+ (Vg9+ cells), flow staining came out at 90.4%; the Granzyme B, Luninex (supernatant) worked out at 766; the IFNγ, Luninex (supernatant) is 83. This molecule also displayed an IL6, Luninex (supernatant) of 104; a TNFα, Luninex (supernatant) of 17; a Vg9 T cell %, flow staining of 5.1%.
